Measurements from patent US11247989B2 (priority 2017, dated 2022).

What follows are compounds tested on MYC (assay: cells). Settings: Homo sapiens, MV4-11, 4 h, read-out: Myc IC50 (μM).
With `CC(=O)N1CCc2c(c(-c3cccc4cc(N5CCC[C@H]5C)ncc34)nn2C2CCOCC2)C1` [Example 113] the IC50 was 0.863 µM. For `CCc1cc(-c2nn(C3CCOCC3)c3c2CN(C(C)=O)CC3)c2cnc(-c3cnn(C)c3)cc2c1` [Example 31, 1-(3-(6-ethyl-3-(1-methyl-1H-pyrazol-4-yl)isoquinolin-8-yl)-1-(tetrahydro-2H-pyran-4-yl)-6,7-dihydro-1H-pyrazolo[4,3-c]pyridin-5(4H)-yl)ethanone], the IC50 was 0.0646 µM. With `CNC(=O)N1CCc2c(c(-c3cccc4cc(-c5cnn(C)c5)ncc34)c(C#N)n2C2CCOCC2)C1` [Example 49, 2-cyano-N-methyl-3-(3-(1-methyl-1H-pyrazol-4-yl)isoquinolin-8-yl)-1-(tetrahydro-2H-pyran-4-yl)-6,7-dihydro-1H-pyrrolo[3,2-c]pyridine-5(4H)-carboxamide] the IC50 was 0.0559 µM. `CC(=O)N1CCc2c(c(-c3cccc4cc(N5CCC(C(=O)N(C)C)C5)ncc34)nn2C2CCOCC2)C1` (stereo not drawn) [Example 120] gave an IC50 of 0.119 µM. `CC(=O)N1CCc2c(c(-c3cccc4nc(-c5cccnc5)oc34)nn2C2CCOCC2)C1` [Example 158] was tested, and the IC50 was 5.32 µM. `CC(=O)N1CCc2c(c(-c3cccc4c(C)c(-c5cnn(C)c5)ncc34)nn2C2CCOCC2)C1` [Example 33, 1-(3-(4-methyl-3-(1-methyl-1H-pyrazol-4-yl)isoquinolin-8-yl)-1-(tetrahydro-2H-pyran-4-yl)-6,7-dihydro-1H-pyrazolo[4,3-c]pyridin-5(4H)-yl)ethanone] showed an IC50 of 0.0988 µM. `CNC(=O)[C@H]1CCN(c2cc3cccc(-c4nn(C5CCOCC5)c5c4CN(C(C)=O)CC5)c3cn2)C1` (single isomer, unassigned) [Example 14] showed an IC50 of 0.203 µM. With `COc1ccc(-c2cn3cccc(-c4nn(C5CCOCC5)c5c4CN(C(C)=O)CC5)c3n2)cc1F` [Example 152] the IC50 was over 10 µM. Work on `CC(=O)N1CCc2c(c(-n3ccc4ccc(-c5cnn(C)c5)cc43)nn2C2CCOCC2)C1` [Example 147] yielded an IC50 of 0.263 µM. Work on `CC(=O)N1CCc2c(c(-c3cccc4cc(N5CCC[C@@H]5C)ncc34)nn2C2CCOCC2)C1` [Example 114] yielded an IC50 of 1.15 µM. With `CC(=O)N1CCc2c(c(-c3cccc4cc(N5CCC(F)C5)ncc34)nn2C2CCOCC2)C1` (stereo not drawn) [Example 115] the IC50 was 0.942 µM. Compound `CC(=O)N1CCc2c(c(-c3cccc4cc(N5CC[C@H](C)C5)ncc34)nn2C2CCOCC2)C1` [Example 119] has an IC50 of 1.18 µM. With `CC(=O)N1CCc2c(c(-c3cccc4[nH]ncc34)nn2C2CCOCC2)C1` [Example 140] the IC50 was 2.71 µM. For `CNC(=O)c1ccc(-c2cc3ccc(F)c(-c4nn(C5CCOCC5)c5c4CN(C(C)=O)CC5)c3cn2)cn1` [Example 86], the IC50 was 0.0305 µM. `CC(=O)N1CCc2c(c(-c3cccc4cc(N5CCC(C(F)F)C5)ncc34)nn2C2CCOCC2)C1` (stereo not drawn) [Example 117] gave an IC50 of 1.51 µM. Compound `CC(=O)N1CCc2c(c(-c3cccc4c3CC(=O)N(C3CCC3)C4)nn2C2CCOCC2)C1` [Example 175] has an IC50 of 0.122 µM. `CNC(=O)c1ccc(-c2cc3cccc(-c4nn(C5CCOCC5)c5c4CN(C(=O)NC)CC5)c3cn2)cn1` [Example 92] showed an IC50 of 0.00735 µM. Compound `CC(=O)N1CCc2c(c(-c3cccc4cc(-c5cnn(C)c5)ccc34)nn2[C@H]2CCOC2)C1` [Example 36, (S)-1-(3-(6-(1-methyl-1H-pyrazol-4-yl)naphthalen-1-yl)-1-(tetrahydrofuran-3-yl)-6,7-dihydro-1H-pyrazolo[4,3-c]pyridin-5(4H)-yl)ethanone] has an IC50 of 0.0465 µM. For `CNC(=O)N1CCc2c(c(-c3cccc4c3CC(=O)N(c3cnn(C)c3)C4)nn2C2CCOCC2)C1` [Example 37, N-methyl-3-(2-(1-methyl-1H-pyrazol-4-yl)-3-oxo-1,2,3,4-tetrahydroisoquinolin-5-yl)-1-(tetrahydro-2H-pyran-4-yl)-6,7-dihydro-1H-pyrazolo[4,3-c]pyridine-5(4H)-carboxamide], the IC50 was 0.164 µM. In the case of `CNC(=O)N1CCc2c(C(C)C)nn(-c3cccc4cc(-c5cnn(C)c5)ncc34)c2C1` [Example 47, 3-isopropyl-N-methyl-1-(3-(1-methyl-1H-pyrazol-4-yl)isoquinolin-8-yl)-4,5-dihydro-1H-pyrazolo[3,4-c]pyridine-6(7H)-carboxamide], the IC50 was 0.0619 µM. Work on `CNC(=O)N1CCc2c(c(-c3cccc4c3CC(C)N(c3cnn(C)c3)C4)nn2C2CCOCC2)C1` (stereo not drawn) [Example 38, N-methyl-3-(3-methyl-2-(1-methyl-1H-pyrazol-4-yl)-1,2,3,4-tetrahydroisoquinolin-5-yl)-1-(tetrahydro-2H-pyran-4-yl)-6,7-dihydro-1H-pyrazolo[4,3-c]pyridine-5(4H)-carboxamide] yielded an IC50 of 1.43 µM. `CNC(=O)N1CCc2c(c(-c3cccc4cc(-c5cnc(C)s5)ncc34)nn2C2CCN(C(C)=O)CC2)C1` [Example 46, 1-(1-acetylpiperidin-4-yl)-N-methyl-3-(3-(2-methylthiazol-5-yl)isoquinolin-8-yl)-6,7-dihydro-1H-pyrazolo[4,3-c]pyridine-5(4H)-carboxamide] was tested, and the IC50 was 0.00903 µM. `CC(=O)N1CCc2c(c(-c3cccc4cc(-c5cn(C)nc5C#N)ncc34)nn2C2CCOCC2)C1` [Example 11, 4-(8-(5-acetyl-1-(tetrahydro-2H-pyran-4-yl)-4,5,6,7-tetrahydro-1H-pyrazolo[4,3-c]pyridin-3-yl)isoquinolin-3-yl)-1-methyl-1H-pyrazole-3-carbonitrile] showed an IC50 of 0.114 µM. For `CNC(=O)N1CCc2c(c(-c3ccc(C)c4cc(-c5cnn(C)c5)ncc34)nn2C2CCOCC2)C1` [Example 10, N-methyl-3-(5-methyl-3-(1-methyl-1H-pyrazol-4-yl)isoquinolin-8-yl)-1-(tetrahydro-2H-pyran-4-yl)-6,7-dihydro-1H-pyrazolo[4,3-c]pyridine-5(4H)-carboxamide], the IC50 was 0.0153 µM. `CC(=O)N1CCc2c(c(-c3cccc4cc(N5CCC(C#N)C5)ncc34)nn2C2CCOCC2)C1` (stereo not drawn) [Example 126] was tested, and the IC50 was 0.374 µM. `CNC(=O)N1CCc2c(c(-c3cccc4cc(-c5cnc(C)s5)ncc34)nn2C2CCOCC2)C1` [Example 94] was tested, and the IC50 was 0.00722 µM. In the case of `CC(=O)N1CCc2c(c(-c3cccc4cc(N5CCC(F)(F)C5)ncc34)nn2C2CCOCC2)C1` [Example 125], the IC50 was 0.925 µM. `CC(=O)N1CCc2c(c(-c3cccc4cc(N5CCCC5)ncc34)nn2C2CCOCC2)C1` [Example 129] was tested, and the IC50 was 0.605 µM. `COc1ccc(-c2cn3c(-c4nn(C5CCOCC5)c5c4CN(C(C)=O)CC5)cccc3n2)cc1` [Example 157] showed an IC50 of 1.04 µM. For `CC(=O)N1CCc2c(c(-c3cccc4cc(N5CC[C@@H](C)C5)ncc34)nn2C2CCOCC2)C1` [Example 118], the IC50 was 0.85 µM. `CC(=O)N1CCc2c(c(-c3cccc4cc(N5CCCC5(C)C)ncc34)nn2C2CCOCC2)C1` [Example 123] was tested, and the IC50 was 2.49 µM. `CC(=O)N1CCc2c(c(-c3cccc4ccccc34)nn2C2CCOCC2)C1` [Example 133] was tested, and the IC50 was 0.623 µM. Compound `CC(=O)N1CCc2c(c(-c3cc(C)cc4cc(-c5cnn(C)c5)ncc34)nn2C2CCOCC2)C1` [Example 83] has an IC50 of 0.0662 µM. `CNC(=O)[C@@H]1CCN(c2cc3cccc(-c4nn(C5CCOCC5)c5c4CN(C(C)=O)CC5)c3cn2)C1` (single isomer, unassigned) [Example 15] was tested, and the IC50 was 0.054 µM. Work on `CC(=O)N1CCc2c(c(-c3cccc4c(C#N)c(-c5cnn(C)c5)ncc34)nn2C2CCOCC2)C1` [Example 32, 8-(5-acetyl-1-(tetrahydro-2H-pyran-4-yl)-4,5,6,7-tetrahydro-1H-pyrazolo[4,3-c]pyridin-3-yl)-3-(1-methyl-1H-pyrazol-4-yl)isoquinoline-4-carbonitrile] yielded an IC50 of 0.0728 µM. With `CNC(=O)N1CCc2c(c(-c3cccc4cc(-c5cnc(C)s5)ncc34)nn2C2CC[S+]([O-])CC2)C1` (stereo not drawn) [Example 45, N-methyl-3-(3-(2-methylthiazol-5-yl)isoquinolin-8-yl)-1-(1-oxidotetrahydro-2H-thiopyran-4-yl)-6,7-dihydro-1H-pyrazolo[4,3-c]pyridine-5(4H)-carboxamide] the IC50 was 0.481 µM. With `CC(=O)N1CCc2c(c(-c3cccc4cc(N5C[C@@H](F)[C@@H](F)C5)ncc34)nn2C2CCOCC2)C1` [Example 122] the IC50 was 0.563 µM. `CO[C@H]1CCN(c2cc3cccc(-c4nn(C5CCOCC5)c5c4CN(C(C)=O)CC5)c3cn2)C1` [Example 112] gave an IC50 of 0.249 µM. With `CNC(=O)N1CCc2c(c(-c3c(F)ccc4cc(-c5cnn(C)c5)ncc34)nn2C2CCOCC2)C1` [Example 91] the IC50 was 0.0283 µM. With `CC(=O)N1CCc2c(c(-c3cccc4cc(-c5cnn(C)c5)ncc34)cn2C2CCOCC2)C1` [Example 53, 1-(3-(3-(1-methyl-1H-pyrazol-4-yl)isoquinolin-8-yl)-1-(tetrahydro-2H-pyran-4-yl)-1,4,6,7-tetrahydro-5H-pyrrolo[3,2-c]pyridin-5-yl)ethan-1-one] the IC50 was 0.052 µM. Compound `CC(=O)N1CCc2c(c(-c3cccc4cc(N5CCC(C)(C)C5)ncc34)nn2C2CCOCC2)C1` [Example 121] has an IC50 of 1.12 µM. `CC(=O)N1CCc2c(c(-c3cc(Cl)cc4cc(-c5cnn(C)c5)ncc34)nn2C2CCOCC2)C1` [Example 30, 1-(3-(6-chloro-3-(1-methyl-1H-pyrazol-4-yl)isoquinolin-8-yl)-1-(tetrahydro-2H-pyran-4-yl)-6,7-dihydro-1H-pyrazolo[4,3-c]pyridin-5 (4H)-yl)ethanone] showed an IC50 of 0.198 µM. Compound `CC(=O)N1CCc2c(c(-c3cccc4c3CC(=O)N(c3cnn(C)c3)C4)nn2C2CCOCC2)C1` [Example 101] has an IC50 of 0.33 µM. For `CC(=O)N1CCc2c(c(-c3csc4ccccc34)nn2C2CCOCC2)C1` [Example 135], the IC50 was 1.01 µM. For `CNC(=O)c1ccc(-c2ncc3c(-c4nn(C5CCOCC5)c5c4CN(C(C)=O)CC5)cccc3c2F)cn1` [Example 24, 5-(8-(5-acetyl-1-(tetrahydro-2H-pyran-4-yl)-4,5,6,7-tetrahydro-1H-pyrazolo[4,3-c]pyridin-3-yl)-4-fluoroisoquinolin-3-yl)-N-methylpicolinamide], the IC50 was 0.0263 µM. Work on `COc1ccc(N2Cc3c(cccc3-c3nn(C4CCOCC4)c4c3CN(C(C)=O)CC4)C2=O)cc1` [Example 145] yielded an IC50 of 4.42 µM. For `CC(=O)N1CCc2c(c(-c3cccc4cc(N5CC=CC5)ncc34)nn2C2CCOCC2)C1` [Example 124], the IC50 was 0.491 µM. For `CNC(=O)N1CCc2c(c(-c3cccc4c(C)c(-c5cnn(C)c5)ncc34)nn2C2CCOCC2)C1` [Example 34, N-methyl-3-(4-methyl-3-(1-methyl-1H-pyrazol-4-yl)isoquinolin-8-yl)-1-(tetrahydro-2H-pyran-4-yl)-6,7-dihydro-1H-pyrazolo[4,3-c]pyridine-5(4H)-carboxamide], the IC50 was 0.0592 µM.
